This note sets out measurements from paper PMC5892938.

This is one part of the list. Construct or isoform of the protein are uncertain.

In the assay the target is GST-SBP-ILF3 (Homo sapiens) (UniProt Q12906). The experiment in a line: targeted RNA Bind-n-Seq. To be noted: RBNS binding buffer: 25 mM Tris pH 7.5, 150 mM KCl, 3 mM MgCl2, 0.1% Tween, 0.5 mg/mL BSA, 1 mM DTT; 27 nM protein, 750 pM RNA pool; temperature not stated; high values mean tight binding; sequences stand for … in GGGUAAAAGCGAGGUGAA…CGGGACAAGUAUUAUGGG
In the case of “GUGGUGUGUGUUGGCUCCUAACACAUACUA [gtspaired]”, the binding signal (log2 fold change) was -0.517.
For “GUGUGGUGUGUUGGCCUCUAACACACUAUA [gtspaired]” the value was -1.02; for “GUGUGUGGUGUUGGCCUCUAACACCAUACG [gtspaired]”, -0.658.
Turning to “GUUGUGUGUGUUGGAUUCUAACACACGCAG [gtspaired]”, the binding signal (log2 fold change) is -0.855.
To “UUUUUUUUUUGAGAACGAUUCGUUCUCCUA [tttttgagapaired]” belongs -0.217.
For the sequence “UUUUUUUUUUGAGAUGGGUACCAUCUUCUA [tttttgagapaired]”, the binding signal (log2 fold change) came out at 0.548.
With “GUGUGGUGUGUUGGUCUCUAACACACCGCG [gtspaired]”, the binding signal (log2 fold change) was -0.83.
As to “UUUUUUUUUUGAGACGGGUACCGUCUCCUA [tttttgagapaired]”, the binding signal (log2 fold change) was -0.146.
To “GUUGGUGGUGUUGGAGCCUAACACCGCCGA [gtspaired]” belongs -0.249; to “UUUUUUUUUUGAGAUGGGUACCAUUUCCAG [tttttgagapaired]”, 0.323; to “UUUUUUUUUUGAGACCGCGACGGUCUUCUG [tttttgagapaired]”, 0.549.
To “GGUGUGUGUGUUGGACUCUAACACAUACAC [gtspaired]” belongs -0.237; to “GUGGUUGGUGUUGGUGCCUAACACCGACUA [gtspaired]”, -0.312.
Turning to “UUCUUCUCUCCUCCGCUGGAGGGGGGAAGA [ctspaired]”, the binding signal (log2 fold change) is -0.973.
“UUUUUUUUUUGAGACUGGGACAGUCUCCAG [tttttgagapaired]”: the binding signal (log2 fold change) was found to be 0.54.
To “UUUUUUUUUUGAGACGGCGACCGUCUUCUG [tttttgagapaired]” belongs 0.791.
Take “GUGGUGUGUGUUGGUGUCUAACACACAUCA [gtspaired]”: the binding signal (log2 fold change) is -0.108.
For the sequence “GGUGUUGGUGUUGGUUCCUAACACCGAUAC [gtspaired]”, the binding signal (log2 fold change) was -0.305.
For “GUGUGGUGUGUUGGCCUCUAACACACCACG [gtspaired]” the value was -0.272.
To “UUUUUUUUUUGAGAAGGAAUCCUUCUCCAG [tttttgagapaired]” belongs -0.262.
For “UUUUUUUUUUGAGACGGUAGCCGUCUCCUA [tttttgagapaired]” the value was 0.45.
Turning to “UUUUUUUUUUGAGAUGGCGACCAUCUCCGG [tttttgagapaired]”, the binding signal (log2 fold change) is 0.383.
For “UUUUUUUUUUGAGAUCGGCACGAUCUCCUA [tttttgagapaired]” the value was 0.154; for “GUGUGUGGUGUUGGAUUCUAACACCGCAUA [gtspaired]”, -0.372; for “GUUGGUGGUGUUGGCACCUAACACCGCCAG [gtspaired]”, -0.94.
For the sequence “UUUUUUUUUUGAGACCGCGACGGUCUCCAG [tttttgagapaired]”, the binding signal (log2 fold change) came out at 0.374.
With “UUCUUCUCUCCUCCGGGGGAGGGGGGAAGA [ctspaired]”, the binding signal (log2 fold change) is -0.476.
For “UUUUUUUUUUGAGACUGCUUCAGUCUCCGG [tttttgagapaired]”, the binding signal (log2 fold change) stood at 0.183.
For “UUUUUUUUUUGAGAUCGACGCGAUCUUCUG [tttttgagapaired]”, the binding signal (log2 fold change) came to 0.593.
Turning to “GUUGGUGGUGUUGGAUCCUAACACCGCCAG [gtspaired]”, the binding signal (log2 fold change) was -0.431.
Regarding “UUUUUUUUUUGAGACGGACACUGUCUCCUA [tttttgagapaired]”, the binding signal (log2 fold change) is 0.806.
“UUUUUUUUUUGAGAGGGAUCCCCUUUCCGG [tttttgagapaired]”: the binding signal (log2 fold change) came out at 0.0875.
Take “UUUUUUUUUUGAGAUCGAAGCGAUCUUCUG [tttttgagapaired]”: the binding signal (log2 fold change) was 0.307.
For the sequence “UUUUUUUUUUGAGAGUGAUACACUCUUCUA [tttttgagapaired]”, the binding signal (log2 fold change) was -0.202.
Turning to “UUUUUUUUUUGAGAGUGAACCACUCUCCAG [tttttgagapaired]”, the binding signal (log2 fold change) is -0.0443.
With “UUUUUUUUUUGAGAGGGCUACCCUCUCCUG [tttttgagapaired]”, the binding signal (log2 fold change) came to 0.689.
As for “GUUGGUGGUGUUGGUCUCUAACACCAUCAA [gtspaired]”, the binding signal (log2 fold change) is -0.28.
To “UUUUUUUUUUGAGACUGGGUCAGUCUCCGG [tttttgagapaired]” belongs 0.382.
For “UUUUUUUUUUGAGAGGGUGGCCCUCUCCUG [tttttgagapaired]”, the binding signal (log2 fold change) was found to be 0.92.
With “GUUGGUGGUGUUGGAGUCUAACACCGCCGA [gtspaired]”, the binding signal (log2 fold change) is -0.317.
For “GUGUGUGGUGUUGGCACCUAACACCACGCG [gtspaired]” the value was -0.596; for “UUUUUUUUUUGAGACGGACUCCGUCUCCGG [tttttgagapaired]”, 0.338; for “GUGGUGUGUGUUGGUGCCUAACACAUACUA [gtspaired]”, -0.571.
To “UUUUUUUUUUGAGACGGUUUCCGUUUCCAG [tttttgagapaired]” belongs 0.692; to “GUGUGGUGUGUUGGCCCCUAACACACUAUA [gtspaired]”, -0.288; to “GUGUGUGGUGUUGGCACCUAACACCGCAUA [gtspaired]”, -0.634.
In the case of “UUUUUUUUUUGAGAGGGCGGCCCUCUCCAG [tttttgagapaired]”, the binding signal (log2 fold change) was 1.16.
As for “UUUUUUUUUUGAGAGUGCGGCAUUCUCCGG [tttttgagapaired]”, the binding signal (log2 fold change) was 0.549.
For “UUUUUUUUUUGAGACUGCAACAGUUUCCUA [tttttgagapaired]”, the binding signal (log2 fold change) came to 0.39.
For “GGUGUUGGUGUUGGCCCCUAACACCGAUAC [gtspaired]” the value was -0.424; for “UUUUUUUUUUGAGAUGGAAGCCAUCUCCAG [tttttgagapaired]”, 0.141.
Turning to “GUGUGGUGUGUUGGCCUCUAACACAUCGCG [gtspaired]”, the binding signal (log2 fold change) was -0.743.
For “UUUUUUUUUUGAGACUGCAACAGUUUUCUA [tttttgagapaired]” the value was 0.0585; for “UUUUUUUUUUGAGACGGGAGCCGUUUCCGG [tttttgagapaired]”, 0.728.
To “GUGGUUGGUGUUGGACUCUAACACCGACUA [gtspaired]” belongs -0.83; to “GUGUGGUGUGUUGGCACCUAACACACUACA [gtspaired]”, -0.806; to “GGUGUGUGUGUUGGAUUCUAACACAUAUAC [gtspaired]”, -0.443.
On to “GGUUGUGGUGUUGGAUUCUAACACCGCGAC [gtspaired]”, for which the binding signal (log2 fold change) was -0.569.
With “UUUUUUUUUUGAGAUGGCGGCUAUCUCCAG [tttttgagapaired]”, the binding signal (log2 fold change) was determined as 0.817.
In the case of “GGUGUGUGUGUUGGAACCUAACACAUACAC [gtspaired]”, the binding signal (log2 fold change) is -0.278.
For “UUUUUUUUUUGAGAACGUACCGUUCUCCGG [tttttgagapaired]” the value was 0.507; for “UUCUCUUCUCCUCCAGAGGAGGGGGAGGGA [ctspaired]”, -0.208; for “UUUUUUUUUUGAGACCGAUCCGGUCUUCUG [tttttgagapaired]”, 0.472.
To “UUUUUUUUUUGAGAGGGACCCCCUCUCCAG [tttttgagapaired]” belongs 0.574; to “GUGUGUGGUGUUGGCCCCUAACACCGCGCG [gtspaired]”, -0.183; to “GUUGUGUGUGUUGGUGUCUAACACACACAG [gtspaired]”, -0.581.
On to “UUUUUUUUUUGAGAGGGAGCCCCUCUCCAG [tttttgagapaired]”, for which the binding signal (log2 fold change) turned out to be 0.562.
To “UUUUUUUUUUGAGAUGGGCGCCAUCUCCGG [tttttgagapaired]” belongs 0.623; to “UUUUUUUUUUGAGAUGGGAUCCAUUUCCAG [tttttgagapaired]”, 0.126; to “UUUUUUUUUUGAGAUGGACACCAUCUCCAG [tttttgagapaired]”, 0.349.
With “UUCUCUUCUCCUCCAUGGGAGGGGGAGGGA [ctspaired]”, the binding signal (log2 fold change) was -0.483.
For “UUUUUUUUUUGAGACCGGCACGGUUUCCAG [tttttgagapaired]” the value was 0.494; for “GUGUGGUGUGUUGGCUUCUAACACACUAUA [gtspaired]”, -0.681.
Turning to “GGUGUGUGUGUUGGCUCCUAACACAUAUAC [gtspaired]”, the binding signal (log2 fold change) was -0.782.
To “GUGGUUGGUGUUGGAGUCUAACACCAGCCG [gtspaired]” belongs -0.581; to “UUUUUUUUUUGAGAUGGUCUCCAUCUUCUG [tttttgagapaired]”, 0.594; to “UUUUUUUUUUGAGAGGGACCCCCUCUCCUG [tttttgagapaired]”, 0.822.
For “GGUUGUGGUGUUGGUGUCUAACACCGCAGC [gtspaired]” the value was -0.364.
Consider “GUGUGUUGUGUUGGCCCCUAACACAGCACG [gtspaired]”, for which the binding signal (log2 fold change) was -0.337.
Consider “UUCUCUUCUCCUCCAAUGGAGGGGGAGGGA [ctspaired]”, for which the binding signal (log2 fold change) is -0.617.
To “UUUUUUUUUUGAGAGUGAUCCACUCUCCAG [tttttgagapaired]” belongs 0.148; to “UUUUUUUUUUGAGACUGCGUCAGUCUCCUG [tttttgagapaired]”, 0.703.
To “UUUUUUUUUUGAGAGCGACACGUUCUCCAG [tttttgagapaired]” belongs 0.294; to “UUUUUUUUUUGAGACUGGUGCAGUCUUCUA [tttttgagapaired]”, 0.498.
With “GUGGUGUGUGUUGGCAUCUAACACAUACCG [gtspaired]”, the binding signal (log2 fold change) is -0.901.
Take “GUGGUGUGUGUUGGUCCCUAACACACGCCA [gtspaired]”: the binding signal (log2 fold change) was -0.161.
To “UUUUUUUUUUGAGACGGAGACCGUUUUCUA [tttttgagapaired]” belongs 0.492.
To “UUUUUUUUUUGAGACUGGGUCAGUCUCCUA [tttttgagapaired]” belongs 0.486.
Consider “UUUUUUUUUUGAGAGCGUGGCGCUCUCCUA [tttttgagapaired]”, for which the binding signal (log2 fold change) was 0.343.
For “UUUUUUUUUUGAGAUGGGCCCCAUCUCCUG [tttttgagapaired]” the value was 1.02; for “UUUUUUUUUUGAGACGGGGGCCGUCUUCUG [tttttgagapaired]”, 0.933; for “UUUUUUUUUUGAGAGGGGGCCCUUCUCCAG [tttttgagapaired]”, 0.674.
For “UUUUUUUUUUGAGACGGCCACCGUCUCCAG [tttttgagapaired]” the value was 0.845; for “UUUUUUUUUUGAGACUGCGUCAGUCUCCGG [tttttgagapaired]”, 0.668.
To “UUUUUUUUUUGAGAUGGCAUCCAUCUUCUA [tttttgagapaired]” belongs -0.0735; to “UUUUUUUUUUGAGACAUGGAUAAUAAAAAA [ttttgagaunpaired]”, -0.117.
Consider “UUUUUUUUUUGAGAGCGAGACGUUCUCCGG [tttttgagapaired]”, for which the binding signal (log2 fold change) came to 0.161.
Take “GUGGUUGGUGUUGGAUCCUAACACCGACCG [gtspaired]”: the binding signal (log2 fold change) was -0.785.
Take “UUUUUUUUUUGAGAUGGACACUAUCUCCAG [tttttgagapaired]”: the binding signal (log2 fold change) was found to be 0.415.
To “UUUUUUUUUUGAGACGGAUGCCGUCUUCUG [tttttgagapaired]” belongs 0.726; to “UUUUUUUUUUGAGACGGAAGCCGUCUCCUA [tttttgagapaired]”, 0.301; to “UUUUUUUUUUGAGACUGACACAGUCUUCUG [tttttgagapaired]”, 0.397.
On to “UUUUUUUUUUGAGAACGAAACGUUCUCCGG [tttttgagapaired]”, for which the binding signal (log2 fold change) is -0.0874.
